{"source": "PubChem BioAssay AID624171", "about": "(National Center for Advancing Translational Sciences (NCATS), 2012)", "note": "About 1,200 (0.29%) of roughly 410,000 compounds were called active. Inconclusive means that the source gave no clear call. Such entries were picked first, then a sample of the others. Calls come from the whole dose curve; as a rule, active = well fitted activation curve with a large enough effect; inconclusive = small, poorly fitted or top-dose-only effect; inactive = flat fitted curve, though single readings scatter. Potencies beside an inconclusive call are fits to weak or partial responses and may not hold up. Potency is the fitted concentration of half-maximal effect; tags give direction and shape of the fitted curve.", "data": [{"assay": "qHTS of Nrf2 Activators; note: nearly all actives have a fitted effect of over 65% in size", "conditions": "AREc32 ARE-luciferase reporter (MCF7-derived line), luminescence, 24 h; series mostly up to 46.1 µM", "method_in_brief": "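ARE-driven firefly luciferase activity in AREc32 cells measured after a 24 hr compound exposure at 37 deg C, using Steady-Glo reagent and a 30 min room-temperature hold.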", "values": [{"compound": "Cc1cs/c(=N\\N=C\\c2cccc([N+](=O)[O-])c2)n1Cc1ccco1", "Potency": "inconclusive: 14.1 µM [activator, partial curve, poor fit]"}, {"compound": "O=C(Nc1ccccc1C(=O)NCc1ccco1)c1ccco1", "Potency": "inconclusive: 12.6 µM [activator, single point]"}, {"compound": "CC[C@H](C)[C@@H](C(=O)NCCCCCCCCCCC(=O)N1CCN(C(=O)OC(C)(C)C)CC1)n1cc(CCCCCNC(=O)OC(C)(C)C)nn1", "Potency": "inactive"}, {"compound": "CN1C(=O)/C(=C\\c2cc(Br)cs2)c2ccccc21", "Potency": "inconclusive: 3.16 µM [activator, partial curve, poor fit]"}, {"compound": "O=C(Nc1ccc(N2CCN(C(=O)c3ccc(Cl)cc3)CC2)cc1)c1ccc([N+](=O)[O-])o1", "Potency": "active: 6.31 µM"}, {"compound": "O=C(O)c1cc(O)ccc1N=Nc1ccccc1", "Potency": "inconclusive: 25.1 µM [activator, single point]"}, {"compound": "CNc1nnc(-c2ccc(C)cc2)c2ccccc12", "Potency": "inconclusive: 14.1 µM [activator, single point]"}, {"compound": "CC(C)c1ccc(NC(=O)CSc2nnc(-c3ccccn3)n2C)cc1", "Potency": "inactive"}, {"compound": "COC(=O)c1sccc1NC(=O)c1ccc(OC)c(OC)c1", "Potency": "inconclusive: 3.55 µM [activator, full curve, poor fit]"}, {"compound": "Cc1ccc(/C=C/C(=O)NC2CCCCCCC2)o1", "Potency": "inconclusive: 20 µM [activator, single point]"}, {"compound": "COc1ccc(Cn2c3ccc(OC)cc3c3nc4ccccc4nc32)cc1", "Potency": "inactive"}, {"compound": "CN1c2ccccc2C(C)(C)[C@]12C=Cc1cc(O)ccc1O2", "Potency": "inconclusive: 31.6 µM [activator, single point]"}, {"compound": "Nc1ncnc(Oc2cccc(C(F)(F)F)c2)c1[N+](=O)[O-]", "Potency": "inconclusive: 20 µM [activator, single point]"}, {"compound": "CCOP(=O)(OCC)c1ccccc1OCP(C)(=O)COc1ccccc1P(=O)(OCC)OCC", "Potency": "inactive"}, {"compound": "Cc1cc(O)c(C(C)C)cc1N=Cc1ccc([N+](=O)[O-])cc1", "Potency": "inconclusive: 17.8 µM [activator, single point]"}, {"compound": "O=C1C(=O)N(Cc2cccc([N+](=O)[O-])c2)c2ccccc21", "Potency": "inconclusive: 31.6 µM [activator, single point]"}, {"compound": "COc1ccc(Cl)cc1NC(=O)C1COc2ccccc2O1", "note": "(stereo not given)", "Potency": "active: 3.55 µM"}, {"compound": "CCOc1c(Cl)cc(C(=O)NCCN2CCCCC2)cc1Cl", "Potency": "inactive"}, {"compound": "Cn1c(NCCN2CCCC2)nc2cc(-c3cccc(C(F)(F)F)c3)sc2c1=O", "Potency": "inconclusive: 10 µM [activator, partial curve]"}, {"compound": "c1ccc(OCCCCn2cnc3ccccc32)cc1", "Potency": "inactive"}, {"compound": "N#C/C(=N\\Nc1ccc(Cl)cc1)C(=O)c1ccccc1", "Potency": "inactive"}, {"compound": "COc1ccc(C(C)=O)cc1COc1ccccc1[N+](=O)[O-]", "Potency": "inconclusive: 0.562 µM [activator, full curve, poor fit]"}, {"compound": "COc1ccc(OC)c(C(=O)C2COC(=O)C2)c1", "note": "(stereo not given)", "Potency": "inconclusive: 22.4 µM [activator, single point]"}, {"compound": "N#C/C(=C/c1ccc(N2CCCCCC2)o1)c1ccc(F)cc1", "Potency": "inactive"}, {"compound": "Oc1ccc(CNc2ccccc2O)cc1", "Potency": "inconclusive: 3.16 µM [activator, full curve, poor fit]"}, {"compound": "Fc1cccc(Cc2c(-c3ccco3)nc3ccc(Br)cn23)c1", "Potency": "inconclusive: 2.82 µM [activator, full curve, poor fit]"}, {"compound": "COc1ccc(-c2c(-c3ccc4c(c3)OCO4)c3ccccc3n2C)cc1", "Potency": "inactive"}, {"compound": "Cc1csc(N/N=C/c2ccc(O)c([N+](=O)[O-])c2)n1", "Potency": "inconclusive: 15.8 µM [activator, single point]"}, {"compound": "CC(C)N1CCC2(CC1)N=C(c1ccc3c(c1)OCO3)CC(c1cc(Cl)ccc1O)N2", "note": "(stereo not given)", "Potency": "inconclusive: 3.55 µM [activator, single point]"}, {"compound": "C=C(CN(C)C)C(=O)c1cc(OC)c(OC)cc1OC", "Potency": "inconclusive: 5.62 µM [activator, single point]"}, {"compound": "CCCC(O)(CCC)C(=O)NN(C(=O)CCl)c1cccc(C)c1", "Potency": "inconclusive: 10 µM [activator, partial curve]"}, {"compound": "CN(C)c1ccc(NC(=O)CSC2=Nc3ccccc3C3=NC(CC(=O)NCc4ccc5c(c4)OCO5)C(=O)N23)cc1", "note": "(stereo not given)", "Potency": "inactive"}, {"compound": "Cc1ccc(C(=O)OCn2ncc(Cl)c(Cl)c2=O)cc1", "Potency": "inconclusive: 4.47 µM [activator, single point]"}, {"compound": "COc1ccc(Oc2ccc(/C=C/C(=O)c3ccc(O)cc3)cc2[N+](=O)[O-])cc1", "Potency": "inconclusive: 5.62 µM [activator, single point]"}, {"compound": "COc1ccc(-c2cc(CNC(=O)CCl)on2)cc1", "Potency": "inconclusive: 22.4 µM [activator, single point]"}, {"compound": "CC1=C(C(=O)NCc2ccc3c(c2)OCO3)C2(CCC(C)CC2)OC1=O", "note": "(stereo not given)", "Potency": "inactive"}, {"compound": "CCOC(=O)c1ccc(/C=C2/C=C(c3ccccc3)N(c3ccc(Cl)c(C(=O)O)c3)C2=O)cc1", "Potency": "inconclusive: 35.5 µM [activator, single point]"}, {"compound": "N#CC(=C1SC=CS1)c1nc(-c2ccccc2)cs1", "Potency": "active: 7.08 µM"}, {"compound": "Cc1ccc(/C=N/c2sc3c(c2C#N)CCC3)o1", "Potency": "inconclusive: 17.8 µM [activator, single point]"}, {"compound": "O=C(/C=C/c1ccccc1)N1CCN(Cc2cc(=O)n3nc(-c4ccccc4Cl)sc3n2)CC1", "Potency": "inconclusive: 14.1 µM [activator, partial curve, poor fit]"}, {"compound": "O=C(NCCN1CCOCC1)NC1(C(F)(F)F)Oc2ccccc2O1", "Potency": "inconclusive: 31.6 µM [activator, single point]"}, {"compound": "CN1C(=O)C(O)(CC(=O)c2ccccn2)c2cc(Br)ccc21", "note": "(stereo not given)", "Potency": "inconclusive: 14.1 µM [activator, partial curve, poor fit]"}, {"compound": "O=C(NCC(c1ccc2c(c1)OCO2)N1CCN(c2ccccc2)CC1)c1ccccc1", "note": "(stereo not given)", "Potency": "inactive"}, {"compound": "COc1ccc(-c2[nH]nc3c2C(c2ccoc2)C(C#N)=C(N)O3)cc1", "note": "(stereo not given)", "Potency": "inconclusive: 35.5 µM [activator, single point]"}, {"compound": "CC(C)(C)OC(=O)N1CCC(C(=O)Nc2cccc(C(=O)NCCCc3ccccc3)c2)CC1", "Potency": "inactive"}, {"compound": "CC(NC(=O)C1=CC=CN2CCS(=O)(=O)N=C12)c1ccc(Cl)cc1Cl", "note": "(stereo not given)", "Potency": "inactive"}, {"compound": "CS(=O)(=O)c1nc(S(=O)(=O)c2ccc(Cl)cc2)c(N2CCC(C(N)=O)CC2)s1", "Potency": "inconclusive: 14.1 µM [activator, partial curve, poor fit]"}, {"compound": "Cc1cc(C)n(CCC(=O)N/N=C/c2ccc(Br)c([N+](=O)[O-])c2)n1", "Potency": "inconclusive: 31.6 µM [activator, single point]"}, {"compound": "[O-][n+]1onc2c1CCc1[nH]c(-c3ccccc3)nc1-2", "Potency": "inconclusive: 15.8 µM [activator, partial curve, poor fit]"}, {"compound": "CC(=O)Nc1sc(N/N=C\\c2ccccc2)nc1-c1cccs1", "Potency": "inconclusive: 11.2 µM [activator, partial curve]"}, {"compound": "CC(C)(C)c1cc(OC(=O)c2ccccc2F)ccc1O", "Potency": "inconclusive: 22.4 µM [activator, single point]"}, {"compound": "CCOc1ccc(-n2cc(C(=O)c3cc(Cl)ccc3O)cc(C#N)c2=O)cc1", "Potency": "inactive"}, {"compound": "COc1ccc(Cl)cc1NC(=O)Cn1nc(C(F)(F)F)c2c1CCC2", "Potency": "inconclusive: 12.6 µM [activator, single point]"}, {"compound": "CC(CCc1ccccc1)NC(=O)CN(C)Cc1ccc(F)cc1", "note": "(stereo not given)", "Potency": "inactive"}, {"compound": "CN(C)CCCNc1nc2cc(-c3cccc(C(F)(F)F)c3)sc2c(=O)n1C", "Potency": "inconclusive: 3.55 µM [activator, single point]"}, {"compound": "Cc1cccc(/C=N\\Nc2cn[nH]c(=O)c2Cl)c1", "Potency": "inconclusive: 14.1 µM [activator, single point]"}, {"compound": "CNc1snc(C)c1C(=O)OCC(=O)c1cc(F)ccc1OC", "Potency": "inconclusive: 3.16 µM [activator, partial curve, poor fit]"}, {"compound": "CNc1sc(C(=O)c2ccc(F)cc2)c(N)c1-c1nc2ccccc2s1", "Potency": "active: 11.2 µM"}, {"compound": "O=C(Nc1ccccc1)Nc1cccc2cccnc12", "Potency": "inconclusive: 11.2 µM [activator, partial curve]"}, {"compound": "O=C(CSc1nccc(-c2cccs2)n1)Nc1ccc(Cl)cc1", "Potency": "inconclusive: 15.8 µM [activator, partial curve, poor fit]"}, {"compound": "Cc1cc(Br)ccc1NC(=O)c1coc(=O)c2ccccc12", "Potency": "inconclusive: 3.55 µM [activator, full curve]"}, {"compound": "CCOc1ccc(NC(=O)Cn2sc3nc(C)cc(C)c3c2=O)cc1", "Potency": "inactive"}, {"compound": "O=C(c1ccc2ccccc2c1)C1CCCN(S(=O)(=O)c2cccnc2)C1", "note": "(stereo not given)", "Potency": "inactive"}, {"compound": "CCOC(=O)c1cnc(-c2ccccc2)nc1N", "Potency": "inconclusive: 11.2 µM [activator, partial curve, poor fit]"}, {"compound": "Cc1ccc2c(c1)C(O)(CC(=O)/C=C/C=C/c1ccccc1)C(=O)N2", "note": "(stereo not given)", "Potency": "inconclusive: 31.6 µM [activator, partial curve, poor fit]"}, {"compound": "Nc1nc(N)c(-c2cccc(C(F)(F)F)c2)c(Cc2cccc(C(F)(F)F)c2)n1", "Potency": "inactive"}, {"compound": "CCN(CC)CC(C(=O)N(CC)CC)P(=O)(c1ccccc1)c1ccccc1", "note": "(stereo not given)", "Potency": "inconclusive: 14.1 µM [activator, single point]"}, {"compound": "COc1cc(-c2nnc(NC(=O)CCS(=O)(=O)c3ccccc3)o2)cc(OC)c1OC", "Potency": "active: 11.2 µM"}, {"compound": "COCCCNc1nc2nonc2nc1N1C[C@H]2CC[C@H]1C2", "Potency": "inactive"}, {"compound": "O=[N+]([O-])c1sccc1CS(=O)(=O)c1ccccc1", "Potency": "inconclusive: 15.8 µM [activator, single point]"}]}]}
